Data from the supplement of paper PMC3334620.
The full ranking holds about 33,000 sequences; the median of “E-score (-0.5 to 0.5)” is about -0.012, and the highest 2% start at about 0.29. The list shows a part of the results.

Biological target: T1, Ybr033w (UniProt P38073)
T1 sequence: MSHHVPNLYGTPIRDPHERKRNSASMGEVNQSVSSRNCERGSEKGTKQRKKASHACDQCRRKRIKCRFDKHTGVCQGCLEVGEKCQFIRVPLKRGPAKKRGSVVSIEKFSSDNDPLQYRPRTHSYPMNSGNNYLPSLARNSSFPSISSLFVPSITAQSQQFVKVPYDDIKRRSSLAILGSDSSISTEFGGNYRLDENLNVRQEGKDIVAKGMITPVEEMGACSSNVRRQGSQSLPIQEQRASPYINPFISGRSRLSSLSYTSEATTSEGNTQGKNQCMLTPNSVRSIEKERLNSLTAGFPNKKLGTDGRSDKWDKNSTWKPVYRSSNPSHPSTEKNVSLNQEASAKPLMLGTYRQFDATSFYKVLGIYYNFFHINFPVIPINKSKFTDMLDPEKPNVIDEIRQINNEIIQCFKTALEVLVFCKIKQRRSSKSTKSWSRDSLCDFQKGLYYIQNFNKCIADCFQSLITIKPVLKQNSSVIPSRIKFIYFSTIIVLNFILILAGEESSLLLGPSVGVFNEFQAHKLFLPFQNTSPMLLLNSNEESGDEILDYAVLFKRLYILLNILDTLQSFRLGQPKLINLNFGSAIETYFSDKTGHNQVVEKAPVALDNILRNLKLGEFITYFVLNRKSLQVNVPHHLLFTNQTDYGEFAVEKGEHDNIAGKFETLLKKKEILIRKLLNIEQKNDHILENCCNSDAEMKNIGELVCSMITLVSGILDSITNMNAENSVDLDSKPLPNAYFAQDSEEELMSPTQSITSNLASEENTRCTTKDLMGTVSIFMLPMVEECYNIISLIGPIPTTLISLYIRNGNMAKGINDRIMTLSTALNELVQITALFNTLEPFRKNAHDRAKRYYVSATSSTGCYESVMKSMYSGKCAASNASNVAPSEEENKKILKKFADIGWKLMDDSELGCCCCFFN
Assay: PBM E-score (8-mer binding enrichment) (E-score (-0.5 to 0.5)); higher = stronger / more preferred TF binding; most listed sequences are background and not binding sites
Settings: protein concentration: 200 nM; construct: GST-full length
Procedure, shortened: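 Masliner-normalised scans of fluorescent anti-GST signal were the basis for scoring. That signal came from GST-tagged yeast transcription factors applied at about 100-200 nM to double-stranded universal all-10-mer Agilent arrays on fresh or once-stripped slides. Each ungapped eight-base word, pooled with its reverse complement, received an E-score from the Universal PBM Analysis Suite.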

Going from CCCGTCCG to AATTGTCT, the “PBM E-score” value rises from -0.371 to 0.117.

Compared with CAATTTTA, AGGGTTGG is lower in “PBM E-score” value: 0.217 for the first, 0.00207 for the second.

Going from TACCGATA to GCGGACAC, the “PBM E-score” value falls from 0.116 to -0.0788.

First: GCCTATAA
Second: AACCCAGC
The “PBM E-score” value of the first is lower: -0.0961 for the first, -0.0856 for the second.

First: GCCTCAGA
Second: CGAACTCC
The “PBM E-score” value of the first is lower: -0.183 for the first, 0.0608 for the second.

Compared with CAACCCCG, AGAATTTG is higher in “PBM E-score” value: -0.0896 for the first, 0.227 for the second.

Compared with GTGTCAAC, AAAGCTGG is higher in “PBM E-score” value: -0.184 for the first, -0.0749 for the second.

First: GTAGGAAA
Second: ATATATAC
The “PBM E-score” value of the first is lower: 0.0603 for the first, 0.245 for the second.

Going from CATTCAAA to AGCTCCCG, the “PBM E-score” value falls from 0.232 to -0.343.

Compared with GCTCCGTA, CACAGTCG is lower in “PBM E-score” value: -0.0392 for the first, -0.125 for the second.

First: ATGCAACA
Second: TATATCCA
The “PBM E-score” value of the first is lower: 0.0432 for the first, 0.251 for the second.

Going from AACCAGGG to CAGTTCGC, the “PBM E-score” value rises from -0.155 to -0.0117.

Compared with GAAATCAA, AATAAAGC is lower in “PBM E-score” value: 0.205 for the first, 0.142 for the second.

First: CATATTGG
Second: CTTGGCGC
The “PBM E-score” value of the first is higher: 0.137 for the first, -0.0103 for the second.

First: CGATAGAA
Second: ACCGGAGG
The “PBM E-score” value of the first is higher: 0.133 for the first, -0.176 for the second.

Going from AGACCCCA to ACGGATCG, the “PBM E-score” value falls from 0.0359 to -0.126.

Going from ACAGAGGA to TGAGCCCA, the “PBM E-score” value falls from 0.00174 to -0.0977.

Compared with ATGAGACG, AGGATCGG is lower in “PBM E-score” value: -0.0314 for the first, -0.141 for the second.

First: AGACCCGC
Second: TAAATCAA
The “PBM E-score” value of the first is lower: -0.18 for the first, 0.179 for the second.

Compared with GATCAGCA, AGCAACAG is higher in “PBM E-score” value: -0.0108 for the first, 0.0436 for the second.

Going from CGCGTCTA to GCTCCGGA, the “PBM E-score” value rises from -0.0265 to 0.0838.

Going from ACGGTCTA to TGCTTACA, the “PBM E-score” value rises from -0.122 to 0.025.

Going from GCACGGAC to ACGTATTG, the “PBM E-score” value rises from -0.15 to 0.0237.

First: CATTACTA
Second: ATACGCCC
The “PBM E-score” value of the first is higher: 0.119 for the first, -0.15 for the second.

First: GAGGGGGC
Second: CAAGCAGC
The “PBM E-score” value of the first is lower: -0.339 for the first, -0.0931 for the second.

First: ATCCACGA
Second: AGGTTCTA
The “PBM E-score” value of the first is higher: 0.0164 for the first, -0.0332 for the second.

First: ACAAGAGT
Second: ATAAGAAG
The “PBM E-score” value of the first is higher: 0.0822 for the first, 0.0674 for the second.

Compared with ATGTTCAG, CTGACACA is higher in “PBM E-score” value: -0.137 for the first, -0.065 for the second.

Going from CACTGTAA to CCTATGAC, the “PBM E-score” value falls from 0.121 to -0.203.

Going from CGTGGTCC to GGAGTTAA, the “PBM E-score” value rises from -0.203 to 0.0238.

Compared with ATCAGTGA, AAAATGCT is higher in “PBM E-score” value: 0.0369 for the first, 0.195 for the second.

Going from CGATGTCC to CCACAGGG, the “PBM E-score” value falls from -0.118 to -0.209.

First: CTGGCGAA
Second: AAGTCGAG
The “PBM E-score” value of the first is lower: -0.125 for the first, -0.0555 for the second.

First: AGAAGGTA
Second: AGTTGAGC
The “PBM E-score” value of the first is higher: 0.208 for the first, -0.00403 for the second.

First: ATTCGTTC
Second: GAAAACTC
The “PBM E-score” value of the first is higher: 0.238 for the first, 0.107 for the second.

Going from AGAAGGAC to CTGAGATC, the “PBM E-score” value rises from -0.207 to -0.162.

First: ATCTGAGC
Second: GGCCCGCC
The “PBM E-score” value of the first is higher: 0.113 for the first, -0.374 for the second.

Going from CAGTCTTA to GTTTAGAA, the “PBM E-score” value rises from -0.084 to 0.224.

Compared with GTTCATTA, AACTAAGC is lower in “PBM E-score” value: 0.221 for the first, 0.178 for the second.

Going from GAGACCCA to ACCAGGTG, the “PBM E-score” value rises from -0.188 to -0.152.

Compared with CATTGCTC, GAAAATAA is higher in “PBM E-score” value: -0.0785 for the first, 0.304 for the second.

Compared with ACGACGGA, CAGGGAGA is lower in “PBM E-score” value: 0.0791 for the first, -0.235 for the second.

Going from CTCCGAGA to TACCTCTA, the “PBM E-score” value rises from -0.0837 to 0.129.
